Assay results as given in publication PMC7771853, “Differential effects of novel kappa opioid receptor antagonists on dopamine neurons using acute brain slice electrophysiology” (PLoS ONE, 2020).

How the values were obtained:
[1] = target: T1, kappa opioid receptor (KOR) in VTA dopamine neurons (Rattus norvegicus, UniProt P34975); details: probed 10 and/or 20 min after washout commenced; norBNI 100 nM
[2] = target: T1, kappa opioid receptor (KOR) in VTA dopamine neurons; assay: Blockade of U-69,593 induced outward current, whole cell electrophysiology in acute rat midbrain slices; assay type: cell-based; details: for lower asymptote of the fit, % of baseline U-69,593 response: concentration response fit, maximum blockade
[3] = tested on: delta opioid receptor (DOR); details: 10 nM antagonist, DPDPE 10 μM pressure ejected
mu opioid receptor (MOR) = details: 10 nM antagonist, DAMGO 10 μM pressure ejected

T1 sequence (P34975 whole entry): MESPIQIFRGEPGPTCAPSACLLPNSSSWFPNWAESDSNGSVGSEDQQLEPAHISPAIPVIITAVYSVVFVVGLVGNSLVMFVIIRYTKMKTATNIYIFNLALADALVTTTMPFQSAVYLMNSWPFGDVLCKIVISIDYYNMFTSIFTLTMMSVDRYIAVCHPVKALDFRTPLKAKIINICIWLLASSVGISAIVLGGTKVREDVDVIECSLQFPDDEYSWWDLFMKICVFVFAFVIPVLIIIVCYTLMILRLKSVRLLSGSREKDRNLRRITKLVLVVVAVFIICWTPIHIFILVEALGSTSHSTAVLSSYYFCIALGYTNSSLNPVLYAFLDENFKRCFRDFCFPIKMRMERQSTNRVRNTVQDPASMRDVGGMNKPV

| Compound | reversal of U-69,593 blockade on washout [1] | lower asymptote of the fit, % of baseline U-69,593 response [2] | neurons responding to U-69,593 with an inward current in presence of antagonist ([2]; 1 μM antagonist) | effect on responses to DPDPE [3] | effect on responses to DAMGO (mu opioid receptor (MOR)) |
| --- | --- | --- | --- | --- | --- |
| Oc1ccc2c3c1O[C@H]1c4[nH]c5c(c4C[C@@]4(O)[C@@H](C2)N(CC2CC2)CC[C@]314)C[C@@]1(O)[C@H]2Cc3ccc(O)c4c3[C@@]1(CCN2CC1CC1)[C@H]5O4 [norBNI, norbinaltorphimine] | no reversal at 20 min | – | – | – | – |
| CC(C)CNCc1ccc(-c2ccccc2S(=O)(=O)N2CCCC2)cc1 [PF-04455242, 2-methyl-N-((2'-(pyrrolidin-1-ylsulfonyl)biphenyl-4-yl)methyl)propan-1-amine] | persisted through 10 min, but did permit recovery of the U-69,593 effect at 20 min | 45 % of baseline U-69,593 respons | – | – | – |
| Cc1cc(C)cc([C@@H]2CCCN2Cc2ccc(Oc3ccc(C(N)=O)cc3F)cc2)c1 [JNJ-67953964, (S)-3-fluoro-4-(4-((2-(3,5-dimethylphenyl)pyrrolidin-1-yl)methyl)phenoxy)benzamide] | some apparent washout | -27 % of baseline U-69,593 response | 1 of 2 | to a smaller extent inhibited | consistently decreased |
